# In PubChem BioAssay AID889 (National Center for Advancing Translational Sciences (NCATS), 2007):
# Hit rate of the full screen: of about 75,000 compounds, about 15 (0.02%) were called active. Inconclusive results, whose numbers are uncertain, are shown with a selection of clear calls. The call rests on the fitted dose curve; in most records, active means well fitted inhibition curve with a large enough effect in the main read-out, with a control signal flat (not every such curve was filed as active); inconclusive means small, poorly fitted or top-dose-only effect, or a change in a side signal; inactive means flat fitted curve, though single readings scatter. Where the call is inconclusive, the potency comes from a doubtful curve fit. “Side channel” marks fits to a control or component signal instead of the main read-out.
# Biological target: Caspase-7 (Homo sapiens) (UniProt P55210)
# Chain of UniProt P55210 (P55210 whole entry, looked up): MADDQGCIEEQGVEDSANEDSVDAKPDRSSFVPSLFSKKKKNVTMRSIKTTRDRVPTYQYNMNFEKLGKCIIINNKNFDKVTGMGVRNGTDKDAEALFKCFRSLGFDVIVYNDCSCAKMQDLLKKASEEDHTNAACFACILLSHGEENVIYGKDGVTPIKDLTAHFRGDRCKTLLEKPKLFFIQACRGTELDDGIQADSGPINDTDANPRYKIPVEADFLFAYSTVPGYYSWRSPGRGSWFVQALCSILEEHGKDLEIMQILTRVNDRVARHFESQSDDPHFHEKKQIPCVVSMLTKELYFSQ
# Experiment: qHTS Assay for Allosteric/Competitive Inhibitors of Caspase-7; on activity change, negative = inhibition: % of control where 0% means no effect
# Conditions: recombinant caspase-7, Ac-DEVD-AFC fluorescence rate; activity change, negative = inhibition: at 57.5 µM (top of the series) unless noted
# Potency means the concentration at half of the fitted maximal effect; tags describe the fitted curve by direction and shape or compound fluorescence and quenching.
SMILES,Potency,"activity change, negative = inhibition"
CC(=O)C1=C(C)NC(SCC(=O)c2ccc(Cl)cc2)=C(C#N)C1c1ccco1 (stereo not given),"inconclusive: 25.1 µM [fluorescent, partial curve]",
CN(C)C=Nc1ccc2nn(-c3ccccc3)nc2c1,"inconclusive: 15.8 µM [fluorescent, side channel, partial curve]",
Cc1ccc(C)c2[nH]c(=O)c(CN(Cc3ccco3)C(=O)Nc3ccccc3)cc12,,inactive: -3.48%
O=C(Nc1ccc(Oc2ccccc2)cc1)C1CCCO1 (stereo not given),,inactive: -2.58%
CCC1CCCCN1C(=O)CSc1nc(N)c(NC(=O)c2ccc(OC)c(OC)c2)c(=O)[nH]1 (stereo not given),"inconclusive: 10 µM [fluorescent, side channel, partial curve]",
CC(C)Sc1nc(-c2cccs2)nc2c1c(=O)n(C)c(=O)n2C,,inactive: -2.27%
COCCCNC(=O)c1c(N)n(-c2cccc(S(N)(=O)=O)c2)c2nc3ccccc3nc12,"inconclusive: 7.94 µM [fluorescent, side channel, partial curve]",
COc1cc(C(=O)Nc2ccc3c(c2)OCCO3)ccc1OC(C)C,,inactive: -0.266%
CN(C)c1ncc2nc(-c3ccccc3)c(=O)n(C)c2n1,"inconclusive: 10 µM [fluorescent, side channel, partial curve]",
O=C(O)[C@H]1[C@H]2C[C@H]3c4[nH]c5ccccc5c4CCN3C[C@@H]2CC[C@@H]1O,"inconclusive: 31.6 µM [inhibitor, partial curve]",
COc1ccc(C2C3=C(CC(C)(C)CC3=O)Nc3c2c(=O)[nH]c(=O)n3Cc2ccccc2)cc1OC (stereo not given),"inconclusive: 25.1 µM [fluorescent, partial curve]",
CC(=O)Oc1cc(OC(C)=O)c2c(C)cc(=O)oc2c1,"inconclusive: 25.1 µM [fluorescent, side channel, partial curve]",
CCCCNC(=O)C(C#N)c1nc2ccccc2nc1N1CCCC1 (stereo not given),"inconclusive: 12.6 µM [inhibitor, partial curve]",
Cc1cc2c3nonc3ccc2n1C,"inconclusive: 39.8 µM [fluorescent, side channel, single point]",
c1coc(-c2nc3ccccc3nc2-c2ccco2)c1,"inconclusive: 15.8 µM [fluorescent, partial curve]",
C1=C(c2ccc(-c3ccccc3)cc2)Nc2ncnn2C1c1ccco1 (stereo not given),"inconclusive: 25.1 µM [fluorescent, partial curve]",
Cc1ccc(C2CCN(C(=O)Nc3ccccc3)C2)cc1 (stereo not given),,inactive: 1.89%
CC(C)Oc1ccc(C(=O)NCc2ccco2)cc1,,inactive: -0.967%
COc1ccc(-n2c(=O)c(-c3cc(F)cc(F)c3)nc3cnc(N4CCOCC4)nc32)cc1,"inconclusive: 10 µM [fluorescent, side channel, partial curve]",
CCN(CC)S(=O)(=O)c1ccc(-c2nnc(SCC(=O)N3CCOCC3)o2)cc1,,inactive: 0.187%

SMILES,Potency,"activity change, negative = inhibition"
CCCCc1cc(=O)oc2c(CN(C)C)c(O)ccc12,"inconclusive: 15.8 µM [fluorescent, side channel, partial curve]",
CN1CCN(c2ncc3nc(-c4cccs4)c(=O)n(C[C@H]4CCCO4)c3n2)CC1,"inconclusive: 3.98 µM [fluorescent, side channel, partial curve]",
Oc1ccccc1C(Sc1nc2ccccc2s1)Sc1nc2ccccc2s1,,inactive: 0.37% [at 11.5 µM]
CCNc1ncc2nc(-c3ccc(OC)cc3)c(=O)n(C[C@H]3CCCO3)c2n1,"inconclusive: 1.58 µM [fluorescent, side channel, full curve]",
CCn1c(=O)c2[nH]c(-c3ccccc3)nc2n(CC)c1=O,,inactive: 0.109%
O=C(Nc1cccc(-c2nnc(-c3ccccc3)o2)c1)C1CCCO1 (stereo not given),,inactive: -0.105%
COc1ccc2c(c1OC)C(Cc1ccccc1)N1CCc3cc4c(cc3C1=C2)OCO4 (stereo not given),"inconclusive: 25.1 µM [inhibitor, partial curve]",
CS(=O)(=O)Nc1ccccc1C(=O)Nc1ccc2c(c1)OCCO2,,inactive: -0.209%
CCN1C(C)=C(C(=O)OC)C(c2ccccc2)N2C(=O)[C@@]3(C(=O)OC)O[C@@]12C1C(=O)N(c2ccccc2)C(=O)C13 (stereo not given in full),,inactive: -1.21% [at 11.5 µM]
O=c1c(-c2cccs2)nc2cncnc2n1Cc1ccc(F)cc1,"inconclusive: 12.6 µM [fluorescent, partial curve]",
O=C(O)c1cc(O)c2c(c1)[C@H]([C@H]1c3cc(C(=O)O)cc(O)c3C(=O)c3c(O[C@@H]4OC(CO)C(O)C(O)C4O)cccc31)c1cccc(O[C@@H]3OC(CO)C(O)C(O)C3O)c1C2=O (stereo not given in full),active: 10 µM,
CCOC(=O)c1cc2c(=O)n3ccccc3nc2n(CCOC)c1=NC(=O)C(C)(C)C,"inconclusive: 15.8 µM [fluorescent, partial curve]",
Cc1ccccc1NC(=O)CSc1nc2c(c(-c3ccco3)c1C#N)CCCC2,,inactive: -0.492%
Cc1cc(O)ccc1Nc1nc2ccccc2nc1Nc1ccc(O)cc1C,"inconclusive: 31.6 µM [inhibitor, single point]",
C=CCn1c(NC(=O)c2ccccc2Cl)c(C#N)c2nc3ccccc3nc21,"inconclusive: 15.8 µM [fluorescent, partial curve]",
O=[n+]1c2c(n([O-])c3cc(F)c(N4CCCC4)cc31)CCC2,"inconclusive: 15.8 µM [fluorescent, partial curve]",
COc1ccc(-c2nc3cnc(N4CCOCC4)nc3n(-c3ccccc3)c2=O)cc1,"inconclusive: 2.51 µM [fluorescent, side channel, full curve]",
O=C1NCCCC2c3cc(O)c4ccccc4c3OC12N1CCCCC1 (stereo not given),"inconclusive: 31.6 µM [inhibitor, single point]",
CC(=O)Oc1ccc2c(C)c(CC(C)O)c(=O)oc2c1 (stereo not given),"inconclusive: 15.8 µM [fluorescent, partial curve]",
CN1CCN(c2ncc3nc(-c4cccc(C#N)c4)c(=O)n(CCC#N)c3n2)CC1,"inconclusive: 5.01 µM [fluorescent, side channel, partial curve]",
